# From article PMC6919601, “Identification of Plasmodium dipeptidyl aminopeptidase allosteric inhibitors by high throughput screening” (PLoS ONE, 2019)
# About 230 (0.21%) of roughly 110,000 compounds showed an effect of 50% or more. This is one part of the list.
# Molecular target: DPAP1 (Plasmodium falciparum, UniProt Q8IIJ9)
# Assay: primary screen, percent inhibition; read by cleavage of a fluorogenic dipeptide substrate; higher = more effect of the substance
# Design: species or system P. falciparum D10 trophozoite lysates; single well
# 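Further: 30 min substrate incubation versus DMSO and 10 µM JCP410 controls.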
# Chain of DPAP1 (Q8IIJ9 whole entry, looked up): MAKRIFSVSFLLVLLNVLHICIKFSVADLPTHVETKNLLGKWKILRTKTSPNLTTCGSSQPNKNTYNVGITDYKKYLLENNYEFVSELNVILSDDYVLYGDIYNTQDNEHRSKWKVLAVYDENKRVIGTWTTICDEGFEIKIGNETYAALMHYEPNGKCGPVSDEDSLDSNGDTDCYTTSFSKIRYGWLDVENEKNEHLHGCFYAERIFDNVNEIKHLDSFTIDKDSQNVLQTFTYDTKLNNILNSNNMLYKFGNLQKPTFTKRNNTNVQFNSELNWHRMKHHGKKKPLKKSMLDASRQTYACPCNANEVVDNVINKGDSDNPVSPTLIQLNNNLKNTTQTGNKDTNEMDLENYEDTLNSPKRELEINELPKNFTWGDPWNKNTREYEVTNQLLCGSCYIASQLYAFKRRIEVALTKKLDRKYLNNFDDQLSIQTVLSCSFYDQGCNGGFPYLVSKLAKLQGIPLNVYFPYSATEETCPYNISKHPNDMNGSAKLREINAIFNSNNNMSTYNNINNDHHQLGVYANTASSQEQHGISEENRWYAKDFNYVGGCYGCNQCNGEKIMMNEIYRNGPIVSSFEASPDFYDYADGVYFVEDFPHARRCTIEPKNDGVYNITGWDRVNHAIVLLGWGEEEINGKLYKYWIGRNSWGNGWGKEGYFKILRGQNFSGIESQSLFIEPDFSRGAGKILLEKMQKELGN
row,Compound,% Inhibition @ 10 uM
1,O=C(c1nc2ccccc2s1)N1CCN(c2ccccn2)CC1,3.49%
2,CC(C)Oc1ccc(CNc2ncnc3c2sc2nc4c(cc23)COC(C)(C)C4)cc1,7.89%
3,COc1ccc(C(=O)NO/C(O)=C/C(C)=N/Cc2ccccc2)cc1,8.61%
4,Cc1ccc2[nH]c(NCCO)nc2c1,-1.56%
5,CCn1c2ccccc2c2cc(CN3CC=C(c4ccc(F)cc4)CC3)ccc21,-5.31%
6,Cc1ccccc1NC(=O)c1cc(SCCS(=O)(=O)c2ccc(Cl)cc2)ccc1Cl,6.03%
7,Cn1c(NC(=O)COc2ccc(Cl)cc2)cc(=O)n(C)c1=O,2.32%
8,CC(=O)c1ccc(NC(=O)c2cccc(S(=O)(=O)Nc3ccc(C(C)=O)cc3)c2)cc1,6.31%
9,CCOc1ccc(/C=C/c2nc(C#N)c(NCCN(C)C)o2)cc1,0.895%
10,CC(C)C(=O)N(Cc1ccco1)C1CCS(=O)(=O)C1 (stereo not drawn),2.19%
11,CCn1c(=O)c(C(=O)NCCN2CCCCC2)c(O)c2ccccc21,0.878%
12,CCN(/C=N/c1sc2c(c1C#N)CCCCC2)CC,5%
13,Cc1nc2c(c(C)c1CCC(=O)NCCN1CCc3ccccc3C1)c(=O)n(C)c(=O)n2C,2.12%
14,Cc1ccc(N2NC(=O)/C(=C/c3ccc(-c4cccc([N+](=O)[O-])c4)o3)C2=O)cc1C,-0.582%
15,CC1(C)C(C=C(Cl)Cl)C1C(=O)N1CCN(c2ccccc2)CC1 (stereo not drawn),-2.56%
16,CCOC(=O)C1=C(c2ccc(OC)cc2)OC(N)=C(C#N)C1c1ccc(F)cc1 (stereo not drawn),1.31%
17,N#CCNC(=O)[C@H](Cc1c(F)cccc1F)NC(=O)c1ccc(-c2c(Cl)cc(C(=O)O)cc2Cl)cc1,1.61%
18,Cc1ccc(C2SCCN2S(=O)(=O)c2ccc(C)cc2)cc1 (stereo not drawn),0.13%
19,Cc1cc(C)c(C2C(C#N)=C(N)Oc3[nH]nc(C)c32)c(C)c1 (stereo not drawn),-2.74%
20,CC1=C(C(=O)OC2CCCC2)C(c2ccc(C)cc2)CC(=O)N1 (stereo not drawn),3.67%
21,CCN(CC)CCN(CC)Cc1ccccc1F,1.08%
22,O=C(Nc1cccc(Cl)c1)c1ccc(Cl)cc1,-5.38%
23,Fc1ccc(-n2c(-c3ccccc3)nnc2-c2ccco2)cc1,5.2%
24,Cc1cc(C(=O)NC2CCCCC2C)cs1 (stereo not drawn),3.5%
25,N#CC1=C(N)OC2=C(C(=O)CCC2)C1c1cc(Br)cs1 (stereo not drawn),1.96%
26,O=C(O)CCC(=O)Nc1sc2c(c1C(=O)Nc1cccc3ccccc13)CCCCC2,-2.6%

row,Compound,% Inhibition @ 10 uM
1,Cc1ccc(N2C(=O)c3ccccc3C2=O)cc1F,2.54%
2,COc1ccc(S(=O)(=O)N(CCc2ccccc2)CC(=O)N2CCCC2)cc1,0.484%
3,COC(=O)c1sccc1NC(=O)Cn1nnc(-c2ccccc2)n1,2.99%
4,COc1cccc(-c2c(C)c(C)nc(N)c2C#N)c1,2.77%
5,Cc1cc2nc(SCCN(C)C)[nH]c2cc1C,0.132%
6,Cc1ccsc1CN1CCN(c2ccccc2)CC1,3.8%
7,Cc1cc(-c2ccc(C)c(S(=O)(=O)NCC3CCN(CCc4cccs4)CC3)c2)on1,6.14%
8,COCCNC(=O)Cn1sc2nc(C)cc(C)c2c1=O,-3.08%
9,Cc1noc(C)c1S(=O)(=O)N1CCCCCC1,-7.54%
10,Cc1ccccc1OCC(O)Cn1c(N2CCCCCC2)nc2c1c(=O)[nH]c(=O)n2C (stereo not drawn),7.5%
11,O=C(Nc1cccnc1)c1ccc2c(c1)OCO2,-3.39%
12,Cc1ccc(N2C(=O)c3ccc(C(=O)N4CCOCC4)cc3C2=O)cc1C,-6.75%
13,C/C(=N\N=C(/C=C/c1ccccc1)/C=C/c1ccccc1)c1nnn(-c2nonc2N)c1C,-7.3%
14,CC1CN=C(Nc2ccc(NC3=NCC(C)S3)cc2)S1 (stereo not drawn),5.4%
15,CCOC(=O)/N=C(/N[C@@H](CC(C)C)C(=O)NCC#N)c1ccccc1,-6.98%
16,CC(C)Cc1nc2ccccc2n1Cc1ccc(F)cc1,-2.28%
17,Cc1cc(OCC(=O)N(Cc2nc(-c3ccccc3)no2)C(C)C)cc(C)c1Br,1.94%
18,O=C(NCc1ccccn1)C1CCN(c2nnc(-n3cccc3)s2)CC1,-0.522%
19,Cc1cc2nc(O)c(O)nc2cc1S(=O)(=O)NCc1ccccn1,2.74%
20,CN(C(=O)C(Cc1ccccc1)n1cccc1)C1CCCCC1 (stereo not drawn),-6.07%
21,Cc1onc(-c2c(Cl)cccc2Cl)c1C(=O)Nc1ccc2c(c1)OCCO2,-1.98%
22,Nc1nnc(SCc2cccnc2)s1,2.37%
23,c1ccc(CNc2ccccn2)cc1,-6.82%
24,Cc1ccc(-c2noc(CCC(=O)NC3CCCC3)n2)cc1,4.58%
25,CC12c3ccccc3C(C)(c3ccccc31)C1C(=O)N(c3ccc(C(=O)O)cc3)C(=O)C12 (stereo not drawn),-1.28%
26,COc1ccc(OCC(=O)Nc2cc(C)ccn2)cc1,6.42%

row,Compound,% Inhibition @ 10 uM
1,O=C(Nc1cccc(C(F)(F)F)c1)c1cc2ccccc2cc1O,3.8%
2,CCc1nnc(NC(=O)Cc2coc3ccc(C(C)C)cc23)s1,1%
3,CCCCN(C)Cc1cc([N+](=O)[O-])ccc1O,1.88%
4,Cc1ccccc1CSCC(=O)Nc1cccc(N(C)S(C)(=O)=O)c1,-0.968%
5,O=C1C=C/C(=N\S(=O)(=O)c2ccc(Cl)cc2)c2ccccc21,-1.52%
6,O=C(O)CCNS(=O)(=O)c1cccs1,4.35%
7,O=C(c1cc2ccccc2nc1-c1ccco1)C(F)(F)F,-4.81%
8,Cn1c(=O)c2c(nc(CN3CCN(Cc4ccccc4)CC3)n2CCN2CCOCC2)n(C)c1=O,5.5%
9,Cc1ccc(-n2nc3c(N4CCC(C(=O)NCCCN5CCCC5=O)CC4)nnc(C)c3c2C)cc1,6%
10,CCCN(CCO)Cc1cccc(F)c1,-7.34%
11,O=C(c1ccccc1[N+](=O)[O-])N1CCN(c2cccc(C(F)(F)F)c2)CC1,-5.62%
12,CC(=O)Nc1ccc(C(=O)CSc2ccc(C(C)(C)C)cc2)cc1,-1.6%
13,O=C(CCc1ccccc1)Nc1sc2c(c1C(=O)O)CCCC2,15.1%
14,CCOC(=O)N1CCN(C(=O)Cn2ncc3c4ccccc4n(Cc4ccccc4F)c3c2=O)CC1,3.2%
15,CCc1cccc(CC)c1NC(=O)c1ccc(C)o1,2.03%
16,CC1(C)CC(=O)c2cc(OCC(=O)NCc3ccc(F)cc3Cl)ccc2O1,-6.88%
17,Cc1nc2c([N+](=O)[O-])c(Cl)c(Cl)cc2[nH]1,3.32%
18,Cc1cccc(C)c1OCc1nc2c3cnn(-c4c(F)c(F)cc(F)c4F)c3ncn2n1,8.19%
19,CCc1nc2cccnc2n1-c1ccc(CC(=O)NC(C)CC)cc1 (stereo not drawn),0.107%
20,CC(C)C(=O)Nc1cc(-c2ccccc2)no1,-1.47%
21,CN1CCN(C(=O)C2CCN(C(=O)c3cnn(-c4ccccc4)c3-n3cccc3)CC2)CC1,1.8%
22,CCN(C(=O)COc1ccc(Cl)cc1Cl)c1ccccc1,-5.41%
23,Cn1c(CCCNC(=O)c2ccccc2)nc2ccccc21,-2.01%
24,CCOC(=O)c1c(S(=O)(=O)N(C)Cc2ccco2)c(C)n(C)c1C,-2.81%
25,CCCCc1ccc(NS(=O)(=O)c2ccc(Cl)cc2)cc1,-2.12%
26,CCCOc1ccc(/C=C2/C(=O)ON=C2C)cc1OCC,-0.386%

row,Compound,% Inhibition @ 10 uM
1,Fc1ccccc1C1CN(c2ccccc2)N=C1c1ccccc1 (stereo not drawn),3.44%
2,COc1cc(S(=O)(=O)N2CCN(c3cccc(C(F)(F)F)c3)CC2)c(C)cc1C,0.245%
3,COc1ccc(C(=O)c2oc3ccccc3c2NC(=O)c2ccccc2)cc1,-3.06%
4,Cc1cccc(NC(=O)C(C)Oc2ccccc2C)c1 (stereo not drawn),-1.42%
5,COc1ccccc1C(=O)NC(C)c1cc2c(cc1Cl)OCCO2 (stereo not drawn),-0.251%
6,O=C(CSCc1cnn(-c2ccccc2)c1-n1cccc1)N1CCC(N2CCCCC2)CC1,-2.85%
7,Cc1nc(Nc2nc(C)c3ccccc3n2)nc(O)c1Cc1ccccc1,-0.545%
8,CN(CCCNC(=O)C1CCN(c2ncnc3c2nc2n3CCCCC2)CC1)Cc1ccccc1,0.244%
9,C=CCCC(C)(C#CCN1CCCCC1)OC(C)=O (stereo not drawn),-2.54%
10,CCCCCC(=O)Nc1nc2c(C)cccc2s1,2.01%
11,Cc1sc2[nH]c(=S)n(-c3ccc(Cl)cc3)c(=O)c2c1C,51.2%
12,Cn1nccc1C(=O)Nc1ccn(Cc2c(F)c(F)cc(F)c2F)n1,-7.55%
13,O=C(CC(c1ccccc1)c1c(O)c2ccccc2oc1=O)c1ccc(-c2ccc(Br)cc2)cc1 (stereo not drawn),0.132%
14,COc1ccc(Nc2oc(COc3ccccc3OC)nc2C#N)cc1,3.62%
15,Cc1ccc(OCCCc2c(C)n[nH]c2C)cc1,6.53%
16,COc1ccc(C2CC(C(F)(F)F)n3ncc(C(=O)NC(C)(C)C)c3N2)cc1 (stereo not drawn),4.33%
17,CCOc1cc2c(cc1OCC)C(c1ccc(OC)c(OC)c1Cl)NCC2 (stereo not drawn),3.57%
18,O=C(CCN1C(=O)c2cccc3cccc(c23)C1=O)Nc1cccc(Br)c1,1.85%
19,CCCN1C(=O)C(O)(CC(=O)c2ccc(Br)cc2)c2ccccc21 (stereo not drawn),-4.5%
20,CCOc1cc(C)c(S(=O)(=O)NC2CC(C)(C)NC(C)(C)C2)cc1C,1.49%
21,COc1ccccc1/C=C/C=C1N=C(/C=C/c2ccc(Cl)cc2)OC/1=O,-1.12%
22,Cc1ccc(-n2nc3c(=O)n(CCCC(=O)NCc4ccccn4)nc(C)c3c2C)cc1,-4.38%
23,Fc1ccc2c(c1)c1nnc(S)nc1n2CCc1ccccc1,10.9%
24,CCN(CC)c1ncnc2sc(C(=O)NCc3ccccc3OC)c(C)c12,-2.17%
